According to the supplement of paper PMC5919970:
Counter-ions that a name gives are not always drawn. Over roughly 2,000 compounds, “fractional viability relative to vehicle” has its median near 0.92; the lowest 2% begin near 0.11. The list shows a part of the results.

Test system: TYKNU
Assay: fractional viability relative to vehicle; TYKNU is a high-grade serous ovarian cancer line; higher = less growth inhibition
Settings: 72 h, genotype: OPA1 knockout (sgOPA1 #2)
In short: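 TYKNU control cells or lentiCRISPRv2 knockout derivatives were seeded at 500 cells per well into drug-stamped 384-well plates holding a ~2100-compound library at 2 or 10 μM, in duplicate. Cells were grown at 37 °C in 5% CO2 in RPMI 1640 with 10% FBS, and drug treatment lasted 72 h. Viability was read by Cell Titer Glo luminescence. Duplicate treatment wells were averaged and normalised to duplicate control wells from the same plate position.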

**Q.** For Nc1nc2c(ncn2COC(CO)CO)c(=O)[nH]1 [Ganciclovir], which fractional viability (2uM) is on record?
**A.** Its fractional viability is 0.978.

**Q.** And the fractional viability (10uM)?
**A.** Its fractional viability is 0.808.

**Q.** How did the fractional viability (2uM) turn out when CCOC(=O)[C@H]1O[C@@H]1C(=O)N[C@@H](CC(C)C)C(=O)NCCC(C)C [Aloxistatin] was run?
**A.** Its fractional viability is 0.883.

**Q.** What about the fractional viability (10uM) of the same molecule?
**A.** Its fractional viability is 0.823.

**Q.** What does the source list for C=CC(=O)Nc1cccc(Sc2nc(Nc3ccc(N4CCN(C)CC4)cc3)ncc2Cl)c1?
**A.** fractional viability (2uM): 1.31; fractional viability (10uM): 0.1

**Q.** Which fractional viability (2uM) does the source give for CCCCNc1ncc(C(=O)NCc2ccc(-n3ccnc3)cc2)c(NC2CCC(O)CC2)n1 (configuration not stated) here?
**A.** The fractional viability was 1.36.

**Q.** What about the fractional viability (10uM) of the same molecule?
**A.** The fractional viability was 0.337.

**Q.** For COCC(=O)NC/C=C/c1ccc2ncnc(Nc3ccc(Oc4ccc(C)nc4)c(C)c3)c2c1, which fractional viability (2uM) is on record?
**A.** The fractional viability was 1.29.

**Q.** And the fractional viability (10uM)?
**A.** The fractional viability was 1.17.

**Q.** Which results are given for Cn1c(=O)c2c(ncn2CC2OCCO2)n(C)c1=O [Doxofylline]?
**A.** fractional viability (2uM): 0.964; fractional viability (10uM): 0.91

**Q.** Oc1cc2c(cc1O)C(c1ccccc1)CNCC2 (configuration not stated) was tested. Which fractional viability (2uM) did it give?
**A.** The fractional viability was 0.958.

**Q.** What about the fractional viability (10uM) of the same molecule?
**A.** Its fractional viability is 0.87.

**Q.** For Cc1ccc([C@@H]2O[C@H](CO)[C@@H](O)[C@H](O)[C@H]2O)cc1Cc1ccc(-c2ccc(F)cc2)s1 [Canagliflozin], which fractional viability (2uM) is on record?
**A.** The fractional viability was 0.931.

**Q.** What about the fractional viability (10uM) of the same molecule?
**A.** Its fractional viability is 0.94.

**Q.** What does the source list for CC(C)(C)c1cc(C(C)(C)C)c(NC(=O)c2c[nH]c3ccccc3c2=O)cc1O [Ivacaftor (VX-770)]?
**A.** fractional viability (2uM): 1.2; fractional viability (10uM): 0.682

**Q.** With CC(C)NC[C@@H](C(=O)N1CCN(c2ncnc3c2[C@H](C)C[C@H]3O)CC1)c1ccc(Cl)cc1 as the molecule, how does the fractional viability (2uM) read?
**A.** The fractional viability was 0.858.

**Q.** What about the fractional viability (10uM) of the same molecule?
**A.** Its fractional viability is 0.82.

**Q.** Which fractional viability (2uM) does the source give for COc1cccc(C=NCCN=Cc2cccc(OC)c2[O-])c1[O-].[Cl-].[Mn+3] here?
**A.** Its fractional viability is 0.832.

**Q.** What about the fractional viability (10uM) of the same molecule?
**A.** Its fractional viability is 0.818.

**Q.** Which results are given for CC1CCN(CC[C@H]2CCCN2S(=O)(=O)c2cccc(O)c2)CC1?
**A.** fractional viability (2uM): 0.927; fractional viability (10uM): 0.923

**Q.** With Nc1ncnc2c1ncn2[C@@H]1O[C@H](CO)[C@@H](O)[C@@H]1O [Vidarabine] as the molecule, how does the fractional viability (2uM) read?
**A.** The fractional viability was 1.34.

**Q.** And the fractional viability (10uM)?
**A.** The fractional viability was 1.07.

**Q.** For CCOc1nc2cccc(C(=O)O)c2n1Cc1ccc(-c2ccccc2-c2nnn[nH]2)cc1 [Candesartan], which fractional viability (2uM) is on record?
**A.** Its fractional viability is 0.939.

**Q.** And the fractional viability (10uM)?
**A.** Its fractional viability is 0.793.

**Q.** Which fractional viability (2uM) does the source give for C=CC(=O)Nc1cccc(Oc2nc(Nc3ccc(N4CCN(C)CC4)cc3)ncc2Cl)c1 here?
**A.** The fractional viability was 0.825.

**Q.** What about the fractional viability (10uM) of the same molecule?
**A.** The fractional viability was 0.5.

**Q.** Which results are given for C[C@@](Cc1ccc(O)c(O)c1)(NN)C(=O)O [Carbidopa]?
**A.** fractional viability (2uM): 0.983; fractional viability (10uM): 0.921

**Q.** With O=C(Nc1cccnc1)c1cc(-c2ccnc(F)c2)ccc1OCc1ccccc1 as the molecule, how does the fractional viability (2uM) read?
**A.** Its fractional viability is 1.47.

**Q.** What about the fractional viability (10uM) of the same molecule?
**A.** The fractional viability was 0.684.

**Q.** What does the source list for COc1ccc(Cl)cc1NC(=O)Nc1cc(C)nc2ccccc12?
**A.** fractional viability (2uM): 1.44; fractional viability (10uM): 0.492

**Q.** CN(C)CCC(c1ccc(Br)cc1)c1ccccn1 (configuration not stated) [Brompheniramine hydrogen maleate] was tested. Which fractional viability (2uM) did it give?
**A.** Its fractional viability is 0.959.

**Q.** And the fractional viability (10uM)?
**A.** The fractional viability was 1.07.

**Q.** Which results are given for O=C1CC[C@@H](C(=O)N2CSC[C@H]2C(=O)O)N1 [Pidotimod]?
**A.** fractional viability (2uM): 0.974; fractional viability (10uM): 1.02

**Q.** c1ccc(-c2ccc(C(c3ccccc3)n3ccnc3)cc2)cc1 (configuration not stated) [Bifonazole] was tested. Which fractional viability (2uM) did it give?
**A.** Its fractional viability is 0.927.

**Q.** And the fractional viability (10uM)?
**A.** The fractional viability was 0.935.
